This experiment is described as follows: Viability qHTS for spleen associated tyrosine kinase inhibitor (SYKi) drug resistant MV4-11 cells (AID 1963824). Also: nearly all actives have a fitted effect of over 35% in size. Conditions: SYKi-resistant MV4-11 viability, CellTiter-Glo, 72 h. The source says: Department of Medicine, Hematology/Oncology
University Hospital Frankfurt, Germany.
Trials have shown promising clinical activity of the selective SYK inhibitor entospletinib in patients with high expressing HOXA9/MEIS1 acute leukemias. As the development of resistance mechanisms is a common problem in the use of targeted drugs, we performed a chemical library screen to identify drug sensitivities in SYK inhibitor resistant AML cells. […] Glucocorticoids are potent immunosuppressants which work in part by inhibiting the transcription of cytokine genes.
Described herein is a viability screen to look for activity in the SYK inhibitor drug resistant cell line against four NCATS compound libraries (MIPE 5.0, NPC, NPACT, and Kinase) totaling 11372 compounds. Active hits were reacquired for confirmation and further secondary assay testing.
SEQUENCE No. (e.g., 1, 2, 3, etc.); […] (e.g., Cells, Incubation, Reagent, etc.); VALUE; DESCRIPTION.
1; Media; 2uL; white, solid-bottom Corning assay plate.
2; Compounds; 23nL; Echo acoustic dispenser. […]
7; Detection; Luminescence; ViewLux plate reader (PerkinElmer). […]
1. Quantitative high-throughput screening (qHTS) of small molecule compounds was conducted on drug resistant SYKi MV4-11 cell line. […]
5. Viability was assessed by adding 3uL of CellTiter-Glo detection reagent (Promega). […]
7. Luminescence was measured on a ViewLux plate reader (PerkinElmer).
(In general: qHTS replaces the single test concentration by a dilution series.)

The structures appear in SMILES notation. Records with an inconclusive call do not appear. Calls follow the shape of the dose curve; as a rule, active = well fitted cell-killing curve with a large enough effect; inconclusive = small, poorly fitted or top-dose-only effect, or effect the other way; inactive = no such curve, though single readings can be large or run the other way. Some entries of the source have several records that differ or are many. Only these are listed. There may be further records. Results that share an entry are repeats across runs, samples, wells, individuals or studies.
Potency is read from the fitted curve at half-maximal effect.

Take `C=C(c1ccc(C(=O)O)cc1)c1cc2c(cc1C)C(C)(C)CCC2(C)C`: the Potency entry is “active: 178 nM, 531 nM, 461 nM, 1.86 µM [separate samples]”.

These data come from PubChem BioAssay (NCATS).
